Measurements published in PubChem BioAssay AID485341 (National Center for Advancing Translational Sciences (NCATS), 2010).
The whole screen tested about 330,000 compounds, of which about 1,700 (0.52%) were called active. The inconclusive results got no clear call from the source; some entries with a clear call stand among them for comparison. Calls follow the shape of the dose curve; as a rule, active = well fitted inhibition curve with a large enough effect; inconclusive = small, poorly fitted or top-dose-only effect; inactive = no such curve, though single readings can be large or run the other way. Potencies of inconclusive entries are doubtful fits and often do not repeat.

The compounds below were run against Beta-lactamase (Escherichia coli (strain K12)) (UniProt P00811) (assay: qHTS Inhibitors of AmpC Beta-Lactamase (assay without detergent)). Conditions: AmpC nitrocefin hydrolysis, absorbance 480 nm, 0.0001% Triton; series mostly up to 57.1 µM.
Summary of the method: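 20 mM phosphate pH 7.0 + 0.01% (detergent screen) or 0.0001% Triton X-100; 5.3 nM AmpC reagent; cpd preinc 15 min RT; nitrocefin (800 uM stock) to start; A480 q20 s × 4 min; Activity was normalised to no-enzyme and no-compound control wells.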
Also: nearly all actives have a fitted effect of over 20% in size.
Potency is read from the fitted curve at half-maximal effect; tags tell the direction and shape of the fitted curve.

Chain of UniProt P00811 (P00811 whole entry, looked up): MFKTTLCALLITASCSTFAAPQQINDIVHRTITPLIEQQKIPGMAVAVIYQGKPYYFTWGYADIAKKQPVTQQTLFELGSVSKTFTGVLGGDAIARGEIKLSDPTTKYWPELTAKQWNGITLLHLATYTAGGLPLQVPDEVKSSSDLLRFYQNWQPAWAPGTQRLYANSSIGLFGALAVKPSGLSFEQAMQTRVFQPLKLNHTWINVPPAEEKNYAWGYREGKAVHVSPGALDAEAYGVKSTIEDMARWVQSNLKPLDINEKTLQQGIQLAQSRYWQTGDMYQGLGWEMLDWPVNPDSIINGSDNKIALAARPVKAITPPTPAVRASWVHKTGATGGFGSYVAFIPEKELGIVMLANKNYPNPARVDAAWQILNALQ

Row | Compound | Potency
1 | Cn1ncc(Cl)c1C(=O)N/N=C/c1cc2c(cc1[N+](=O)[O-])OCO2 | inactive
2 | Cc1cc(C)nc(N/N=C/c2ccccc2OCc2ccc(Br)cc2)n1 | active: 17.8 µM
3 | CN(CC(=O)Nc1c(Cl)cccc1Cl)C(=O)c1n[nH]c2ccccc12 | inconclusive: 35.5 µM [inhibitor, single point]
4 | CCOc1ccc(S(=O)(=O)Nc2cc(Sc3ncn[nH]3)c3oc(=O)sc3c2)cc1 | active: 5.62 µM
5 | S=c1[nH]nc(-c2cc(-c3ccco3)[nH]n2)n1-c1cccc2ccccc12 | active: 17.8 µM
6 | N#Cc1c(NC(=O)CSc2nnc(-c3ccccc3)o2)sc2c1CCCC2 | inconclusive: 5.01 µM [inhibitor, partial curve, poor fit]
7 | NS(=O)(=O)c1cccc(NC(=O)CSc2nc3ccccc3c(=O)n2CCCN2CCOCC2)c1 | active: 31.6 µM
8 | CCOc1ccc(NC(=O)CCCn2c(=S)[nH]c3ccsc3c2=O)cc1 | inconclusive: 28.2 µM [inhibitor, partial curve]
9 | CC1CCCCC1NC(=S)NC(=O)c1sc2ccccc2c1Cl (centres undefined) | inactive
10 | CN(C)S(=O)(=O)c1ccc(NC(=O)N2CCN(c3ccccc3Cl)CC2)cc1 | inconclusive: 3.55 µM [inhibitor, partial curve, poor fit]
11 | O=c1n(Cc2ccccc2)nc2n1-c1ccccc1SC2 | inactive
12 | O=C(CSc1ccc2nnc(-c3ccccc3)n2n1)NCc1ccco1 | inconclusive: 2.51 µM [inhibitor, partial curve, poor fit]
13 | N#Cc1cc(C(=O)c2cc(Br)ccc2O)cn(Cc2ccccc2)c1=O | inconclusive: 15.8 µM [inhibitor, partial curve]
14 | O=C(N/N=C/c1ccc([N+](=O)[O-])o1)c1cc(-c2ccc(-c3ccccc3)cc2)nc2ccccc12 | inconclusive: 20 µM [inhibitor, partial curve]
15 | Cn1c(C(=O)NCCCN2CCCCCC2)cc2c(=O)n(C)c3ccccc3c21 | active: 11.2 µM
16 | Cc1ncc(CO)c(/C=N/NC(=S)Nc2cccc(Cl)c2)c1O | inconclusive: 12.6 µM [inhibitor, partial curve]
17 | Cc1ccc2[nH]c(=O)c(CN(Cc3ccco3)C(=O)N3CCOCC3)cc2c1 | inactive
18 | COC(=O)c1ccc(NC(=O)c2cn(-c3ccccc3)nc2-c2ccncc2)cc1 | inconclusive: 1.41 µM [inhibitor, partial curve, poor fit]
19 | CN(C(=O)COc1ccc(C(C)(C)C)cc1)C1CCS(=O)(=O)C1 (centres undefined) | inconclusive: 3.98 µM [inhibitor, single point]
20 | O=C(CSc1nnc(NC(=O)c2ccccc2F)s1)Nc1ccccc1F | inactive
21 | CC(C)Cn1c(CN2CCCCC2C)nc2c1c(=O)n(C)c(=O)n2C (centres undefined) | inconclusive: 3.98 µM [inhibitor, partial curve, poor fit]
22 | COc1ccc(C(=O)OCC(=O)NC2CC2)cc1F | inactive
23 | Cc1ccc(-n2c(Cl)c(Cl)nc(Cl)c2=O)cc1 | inactive

Row | Compound | Potency
24 | Cc1nn(-c2ccccc2)c(C)c1NC(=O)COc1ccc([N+](=O)[O-])cc1 | inconclusive: 35.5 µM [inhibitor, single point]
25 | O=C(Nc1ccc(N2CCCC2)c(Cl)c1)c1ccccc1[N+](=O)[O-] | inconclusive: 22.4 µM [inhibitor, partial curve]
26 | C/C(CC(=O)Nc1cccnc1)=N\NC(=O)c1ccc([N+](=O)[O-])c(Cl)c1 | inconclusive: 39.8 µM [inhibitor, single point]
27 | COc1ccc(C(CNC(=O)c2cccc(NS(=O)(=O)c3ccc(C)c(F)c3)c2)N2CCOCC2)cc1 (centres undefined) | inconclusive: 31.6 µM [inhibitor, single point]
28 | CCCCc1c(O)nc(SCC(=O)c2ccccc2)n(-c2ccccc2OC)c1=O | inconclusive: 11.2 µM [inhibitor, partial curve]
29 | COc1ccc(/C=C2\SC(=O)N(CCNC(=O)Cc3coc4cc(OC)ccc34)C2=O)cc1 | inactive
30 | CC(CCc1ccccc1)NC(=O)/C=C/c1ccc(Cl)cc1 (centres undefined) | inconclusive: 22.4 µM [inhibitor, single point]
31 | N#C/C(=C/c1ccccc1[N+](=O)[O-])c1nnc2n1CCCCC2 | inactive
32 | CC(=O)Nc1sc(/C(C#N)=C/c2ccc(Cl)c(Cl)c2)nc1-c1ccc(C)cc1 | active: 4.47 µM
33 | O=C(NCCc1ccccc1)C1CCN(C(=O)Nc2ccccc2)CC1 | inconclusive: 39.8 µM [inhibitor, single point]
34 | CCOC(=O)c1cc(-c2ccccc2)n(CC(=O)Nc2cc(OC)cc(OC)c2)c1C | inconclusive: 3.16 µM [inhibitor, full curve]
35 | CC(=O)N1CCN=C1SCc1ccccc1F | active: 3.55 µM
36 | O=C(CCN1C(=O)/C(=C/c2ccccc2F)SC1=S)NCCc1ccc(O)cc1 | inconclusive: 17.8 µM [inhibitor, partial curve]
37 | CS(=O)(=O)N(CC(=O)N1CCOCC1)Cc1ccccc1 | inconclusive: 0.316 µM [inhibitor, full curve, poor fit]
38 | CC(C)c1ccc(Nc2c([N+](=O)[O-])c(=O)n(C)c3ccccc23)cc1 | inactive
39 | COc1cccc(/C=N/n2c(N)c(S(=O)(=O)c3cccs3)c3nc4ccccc4nc32)c1 | inactive
40 | COC(=O)c1cccc(Nc2nc(-c3cccnc3)nc3ccccc23)c1 | inconclusive: 1.78 µM [inhibitor, full curve, poor fit]
41 | CC1C(c2ccccc2)N(C)C(c2ccccc2)CC1(O)c1ccccc1 (centres undefined) | inactive
42 | COCCCNCCOc1cc(C(C)C)ccc1C | inconclusive: 0.141 µM [inhibitor, full curve, poor fit]
43 | CCOCCSc1nc2c(c(-c3cccs3)c1C#N)CC/C2=C/c1cccs1 | inconclusive: 11.2 µM [inhibitor, partial curve, poor fit]
44 | COCCCNC(=O)Cn1cc2c(n1)CCCCC2 | inconclusive: 44.7 µM [inhibitor, partial curve, poor fit]
45 | CNC(=O)C(=O)NCC1CCCN1S(=O)(=O)c1cccs1 (centres undefined) | inconclusive: 31.6 µM [inhibitor, single point]
46 | O=C(CSc1nnc2sc3ccccc3n12)c1ccco1 | inactive

Row | Compound | Potency
47 | CN(C)S(=O)(=O)c1ccc(C(=O)Nc2nnc(-c3ccc4c(c3)CCCC4)o2)cc1 | active: 2.82 µM
48 | CCN(CC)S(=O)(=O)c1ccc(C)c(NC(=O)COC(=O)CN2C(=O)NC(C)(C)C2=O)c1 | inconclusive: 28.2 µM [inhibitor, single point]
49 | CC1=CC(=O)CC(C)(C)[C@@]1(O)/C=C/[C@@H](C)O[C@@H]1O[C@H](CO)[C@@H](O)[C@H](O)[C@H]1O | inactive
50 | O=S(=O)(N[C@H]1C[C@@H](NS(=O)(=O)OCC(Cl)(Cl)Cl)C2CCCCC21)OCC(Cl)(Cl)Cl (some centres undefined) | inconclusive: 10 µM [inhibitor, partial curve]
51 | CCOc1cc(CNc2ccc(O)cc2)ccc1OCc1ccc(Cl)cc1Cl | inconclusive: 2.82 µM [inhibitor, partial curve, poor fit]
52 | Cc1ccc(OCc2ccc(C(=O)Nc3nccs3)o2)cc1C | inconclusive: 14.1 µM [inhibitor, partial curve]
53 | Cc1nn(-c2ccc(F)cc2)c(Cl)c1/C=N/NC(=O)c1cccs1 | active: 28.2 µM
54 | CC(C)CN(C(=O)c1cc([N+](=O)[O-])cc([N+](=O)[O-])c1)C1CCS(=O)(=O)C1 (centres undefined) | inconclusive: 35.5 µM [inhibitor, single point]
55 | S=c1[nH]nc(COc2ccccc2)n1/N=C/c1cccc(Cl)c1Cl | inconclusive: 17.8 µM [inhibitor, partial curve]
56 | Cc1ccc(/C=C2/NC(=O)N(Cc3ccc(Br)cc3)C2=O)o1 | active: 2.51 µM
57 | Clc1ccc(C2CC(c3ccccc3)Nc3ncnn32)cc1 (centres undefined) | active: 1.26 µM
58 | c1ccc2c(c1)OCC(c1csc3ncnc(N4CCCC4)c13)O2 (centres undefined) | inactive
59 | O=C(C/C=N\OCc1ccc([N+](=O)[O-])cc1)Nc1ccc(Br)cc1 | inconclusive: 2 µM [inhibitor, full curve, poor fit]
60 | Cc1cccc(NC(=O)CCCc2ccccc2)c1 | inactive
61 | Cc1ccc(N2C(=O)NC(=O)/C(=C\C=C\c3ccco3)C2=O)cc1C | inactive
62 | CC(C)(C)c1ccc(/C=N/NC(=S)Nc2cccnc2)cc1 | inconclusive: 8.91 µM [inhibitor, partial curve]
63 | CCCc1ccc(OC(=O)c2ccc(O)cc2Cl)cc1 | inconclusive: 3.55 µM [inhibitor, full curve, poor fit]
64 | NS(=O)(=O)c1ccc2nc(NC(=O)c3ccc4ncsc4c3)sc2c1 | inactive
65 | Cc1ccc(-c2cc(-c3ccc(F)cc3)c(C#N)c(N)n2)o1 | inconclusive: 0.708 µM [inhibitor, full curve, poor fit]
66 | O=C(CCCN1C(=O)c2ccccc2C1=O)NCCCN1CCOCC1 | inconclusive: 6.31 µM [inhibitor, single point]
67 | O=C(Nc1ccc(-c2ccc(N3CCCCC3)nn2)cc1)c1ccco1 | inconclusive: 39.8 µM [inhibitor, single point]
68 | COc1cc(NC(=O)c2ccco2)c(OC)cc1NC(=O)c1cc(OC)c(OC)c(OC)c1 | inconclusive: 4.47 µM [inhibitor, single point]
69 | CC(=O)Nc1ccc(S(=O)(=O)N(C)CC(=O)Nc2cccc(S(=O)(=O)N3CCCC3)c2)cc1 | inconclusive: 31.6 µM [inhibitor, single point]
